B1: PhoQ; a variant is named by its letters at X, in order, P23837 (parent)
chain: MKKLLRLFFPLSLRVRFLLATAAVVLVLSLAYGMVALIGYSVSFDKTTFRLLRGESNLFYTLAKWENNKLHVELPENIDKQSPTMTLIYDENGQLLWAQRDVPWLMKMIQPDWLKSNGFHEIEADVNDTSLLLSGDHSIQQQLQEVREDDDDAEMTHSVAVNVYPATSRMPKLTIVVVDTIPVELKSSYMVWSWFIYVLSANLLLVIPLLWVAAWWSLRPIEALAKEVRELEEHNRELLNPATTRELTSLVRNLNRLLKSERERYDKYRTTLTDLTHSLKTPLXXLQXXLRSLRSEKMSVSDAEPVMLEQISRISQQIGYYLHRASMRGGTLLSRELHPVAPLLDNLTSALNKVYQRKGVNISLDISPEISFVGEQNDFVEVMGNVLDNACKYCLEFVEISARQTDEHLYIVVEDDGPGIPLSKREVIFDRGQRVDTLRPGQGVGLAVAREITEQYEGKIVAGESMLGGARMEVIFGRQHSAPKDE

The record followed here is a collection of fitness landscapes (doi:10.1126/science.1257360).

Some of the results follow. Where only a bound is given, the exact number is not on record here.

In the assay the parent is B1. The experiment in a line: enrichment ratio after two sorts for PhoP signalling (ratio (wild type AVST 3.29)); higher = more functional. To be noted: with PhoP (E. coli).
As to SQWQ, the enrichment ratio is at most 0.25.
Regarding GTGW, the enrichment ratio is at most 0.25.
As for YCTD, the enrichment ratio is at most 0.25.
The value for GMVN was at most 0.25; that for FNPN was at most 0.25; that for MVLA was at most 0.25.
As to LFCV, the enrichment ratio is at most 0.25.
YEDC: the enrichment ratio was at most 0.25.
With TLFL, the enrichment ratio is at most 0.25.
For MDQD, the enrichment ratio was at most 0.25.
As for DDDS, the enrichment ratio is at most 0.25.
Take KYWS: the enrichment ratio is at most 0.25.
PLGC: the enrichment ratio was at most 0.25.
With MPPI, the enrichment ratio was at most 0.25.
Turning to DTMQ, the enrichment ratio is at most 0.25.
On to IINH, for which the enrichment ratio was at most 0.25.
On to QHGY, for which the enrichment ratio stood at 8.42.
On to SEDS, for which the enrichment ratio is at most 0.25.
In the case of RYQH, the enrichment ratio was at most 0.25.
Turning to FSQS, the enrichment ratio was at most 0.25.
Regarding FAAR, the enrichment ratio was at most 0.25.
The value for KNHF was at most 0.25; that for LVRA was at most 0.25; that for RNRW was at most 0.25.
For GMMS, the enrichment ratio was at most 0.25.
On to SKSK, for which the enrichment ratio is at most 0.25.
In the case of VCYF, the enrichment ratio is at most 0.25.
For the variant YAAF, the enrichment ratio is at most 0.25.
Take SYWA: the enrichment ratio is at most 0.25.
Regarding FWYT, the enrichment ratio is at most 0.25.
Take TTQG: the enrichment ratio stood at 6.42.
As for IKEK, the enrichment ratio is at most 0.25.
Take VVNV: the enrichment ratio is at most 0.25.
As to NWEH, the enrichment ratio is at most 0.25.
Turning to VCWH, the enrichment ratio was at most 0.25.
As to HWIG, the enrichment ratio is at most 0.25.
The value for DHIR was at most 0.25; that for HMWL was at most 0.25; that for IMFC was at most 0.25.
In the case of EFHA, the enrichment ratio was at most 0.25.
Turning to EFLR, the enrichment ratio was at most 0.25.
On to ALPE, for which the enrichment ratio is at most 0.25.
On to KDQD, for which the enrichment ratio is at most 0.25.
On to WYQK, for which the enrichment ratio was at most 0.25.
QHNW: the enrichment ratio is at most 0.25.
Take CMIP: the enrichment ratio is at most 0.25.
FNYV: the enrichment ratio was at most 0.25.
On to PDFR, for which the enrichment ratio was at most 0.25.
The same measure for SMTV: 11.4; for MFLQ: at most 0.25.
Regarding TQVQ, the enrichment ratio is 13.8.
Take MDVI: the enrichment ratio is at most 0.25.
Take EYKM: the enrichment ratio is at most 0.25.
The value for MWPF was at most 0.25; that for ECLS was at most 0.25; that for HGQH was at most 0.25.
With RSQN, the enrichment ratio was at most 0.25.
Take GLAR: the enrichment ratio is at most 0.25.
Consider YFYM, for which the enrichment ratio is at most 0.25.
In the case of STSD, the enrichment ratio was at most 0.25.
Consider SMTM, for which the enrichment ratio amounted to 14.9.
Regarding MECM, the enrichment ratio stood at 36.6.
As for QYSG, the enrichment ratio is at most 0.25.
NKAE: the enrichment ratio is at most 0.25.
Turning to KHKL, the enrichment ratio is at most 0.25.
For the variant NQTG, the enrichment ratio is at most 0.25.
In the case of QTSD, the enrichment ratio was at most 0.25.
With FVIW, the enrichment ratio was at most 0.25.
Regarding DCSK, the enrichment ratio was at most 0.25.
QFPR: the enrichment ratio was at most 0.25.
Take IKKA: the enrichment ratio is at most 0.25.
As for SDII, the enrichment ratio turned out to be 11.7.
Turning to YEGN, the enrichment ratio is at most 0.25.
On to FNLD, for which the enrichment ratio was at most 0.25.
VTSF: the enrichment ratio is at most 0.25.
The value for ETAA was at most 0.25; that for PFGL was at most 0.25.
The same measure for SSVF: 7.73; for LNKA: at most 0.25.
In the case of QSRP, the enrichment ratio was at most 0.25.
Take ITHE: the enrichment ratio was at most 0.25.
With SSVG, the enrichment ratio worked out at 8.46.
Consider QENG, for which the enrichment ratio was at most 0.25.
The value for CSSV was 0.253; that for IRWI was at most 0.25.
For the variant LRWM, the enrichment ratio is at most 0.25.
The value for KNHC was at most 0.25; that for WPMD was at most 0.25.
In the case of SPSG, the enrichment ratio is at most 0.25.
The same measure for TYTN: at most 0.25; for SWYH: at most 0.25; for DWWP: at most 0.25.
Take WSFR: the enrichment ratio was at most 0.25.
For VNRE, the enrichment ratio was at most 0.25.
For the variant LWWM, the enrichment ratio is at most 0.25.
Consider IAPY, for which the enrichment ratio was at most 0.25.
In the case of ESTM, the enrichment ratio is at most 0.25.
For YYSD, the enrichment ratio is at most 0.25.
The value for MFLR was at most 0.25; that for VWIC was at most 0.25.
Consider VAPS, for which the enrichment ratio was at most 0.25.
Consider MTYL, for which the enrichment ratio came to 8.65.
Take SHIC: the enrichment ratio was at most 0.25.
Consider EDLP, for which the enrichment ratio is at most 0.25.
For SDYS, the enrichment ratio is at most 0.25.
For MPEH, the enrichment ratio was at most 0.25.
The value for YKTF was at most 0.25; that for DSIK was at most 0.25.
Take STAG: the enrichment ratio came to 9.55.
As to RFRR, the enrichment ratio was at most 0.25.
The same measure for KVYP: at most 0.25; for NCYA: at most 0.25.
Consider PRNY, for which the enrichment ratio is at most 0.25.
For LTDK, the enrichment ratio is at most 0.25.
As for DLWG, the enrichment ratio is at most 0.25.
The same measure for LQEY: at most 0.25; for FAQR: at most 0.25.
For the variant AICM, the enrichment ratio stood at 6.05.
In the case of PASH, the enrichment ratio was at most 0.25.
As for VYQP, the enrichment ratio is at most 0.25.
The value for DWRA was at most 0.25; that for RHIG was at most 0.25; that for IDII was at most 0.25.
The value for LGER was at most 0.25; that for FFME was at most 0.25; that for MFGA was at most 0.25.
As for FNQR, the enrichment ratio was at most 0.25.
Take GLDK: the enrichment ratio is at most 0.25.
Consider HAGQ, for which the enrichment ratio is at most 0.25.
The value for TPPD was at most 0.25.
The value for ILYW was at most 0.25.
Turning to PNVV, the enrichment ratio is at most 0.25.
Take FTMH: the enrichment ratio was found to be 0.948.
In the case of DQCP, the enrichment ratio is at most 0.25.
In the case of HYVY, the enrichment ratio is at most 0.25.
Take ESPY: the enrichment ratio was at most 0.25.
WWNV: the enrichment ratio was at most 0.25.
Regarding AVFY, the enrichment ratio was at most 0.25.
EKNL: the enrichment ratio is at most 0.25.
The value for SLSC was 5.15; that for KPSF was at most 0.25.
As for DWWY, the enrichment ratio is at most 0.25.
As to KDMV, the enrichment ratio is at most 0.25.
With AKCA, the enrichment ratio was at most 0.25.
With VTYL, the enrichment ratio was at most 0.25.
Take GQAL: the enrichment ratio was at most 0.25.
With WHFY, the enrichment ratio was at most 0.25.
As to TVWL, the enrichment ratio is at most 0.25.
For MQMP, the enrichment ratio is at most 0.25.
The same measure for TDQL: at most 0.25; for YCNW: at most 0.25; for IQWN: at most 0.25.
On to VVMK, for which the enrichment ratio is at most 0.25.
